Data taken from PubChem BioAssay AID1347073 (National Center for Advancing Translational Sciences (NCATS), 2019).
The campaign covered roughly 45,000 compounds. About 200 (0.44%) were called active. Another 7% or so got no clear call; they are omitted. Calls come from the whole dose curve; as a rule, active = well fitted activation curve with a large enough effect; inconclusive = small, poorly fitted or top-dose-only effect; inactive = no such curve, though single readings can be large or run the other way. The list shows a part of the results.

assay: qHTS of TDP-43 Inhibitors: NCGC Sytravon Library Screen; details: yeast TDP-43 toxicity rescue, BacTiter-Glo growth, 24 h; series mostly up to 46.1 µM; growth rescue (activation): at the top concentration; note: nearly all actives have a fitted effect of over 55% in size; for growth rescue (activation): 0% is about no effect
In short: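 TDP-43-expressing yeast, pregrown in raffinose, seeded at OD600 0.02 in galactose medium with compound for 24 hr at 30 deg C. Growth read by BacTiter-Glo luminescence, so rescue of toxicity appears as activation.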
Potency is the fitted concentration of half-maximal effect.

| SMILES | growth rescue (activation) | Potency |
| --- | --- | --- |
| Cc1ccc(C)c(NC(=O)Cc2csc(-c3ccccc3)n2)c1 | inactive: 14.8% | – |
| CCC(=O)Nc1cccc(NC(=S)NC(=O)c2cccs2)c1 | inactive: 34.6% | – |
| CCCC(=O)N1CCCC1(C)C(=O)N(C)Cc1cccc2ccccc12 (stereo not drawn) | inactive: 6.34% | – |
| Cc1ccc2[nH]c3c(=O)n4c(nc3c2c1)SCC4 | inactive: 13.1% | – |
| CC(C)Oc1ccc(OCCn2c(=S)[nH]c3c(N)ncnc32)cc1 | inactive: -9.53% | – |
| COc1cc(C(=O)NC(=S)Nc2nccs2)cc(OC)c1OC | inactive: 10.6% | – |
| NNC(=O)CNC(c1ccccc1)c1cc(Br)ccc1NC(=O)c1cccc(Cl)c1 (stereo not drawn) | inactive: 16.9% | – |
| CCOCCCNC(=O)c1ccc2c(c1)N=C(CC)c1cc(Br)ccc1S2 | inactive: 8.23% | – |
| COCC(C)n1c(C)cc(C(=O)CSc2nnc(-c3ccco3)o2)c1C (stereo not drawn) | inactive: 22.4% | – |
| Cc1cc(C)c(NC(=O)CS(=O)CC(=O)N2CCN(c3cccc(C)c3C)CC2)c(C)c1 (stereo not drawn) | inactive: 1.34% | – |
| C/C(=N\N=C\c1ccc(N(C)C)cc1)c1cccc([N+](=O)[O-])c1 | inactive: -0.793% | – |
| COC(=O)CC(NC(=O)Nc1ccc(C)cc1)c1cccc([N+](=O)[O-])c1 (stereo not drawn) | inactive: 0.254% | – |
| COc1cc(SC)ccc1C(=O)N1CCN(Cc2ccccc2)CC1 | inactive: 0.293% | – |
| CC(=O)CSc1cc(C)nc2c(-c3ccccc3)c(C)nn12 | inactive: -6.2% | – |
| CC(=O)Nc1ccc(NC(=O)CCCSc2nc3ccccc3[nH]2)cc1 | inactive: -11.7% | – |
| Cc1cc(SCC(=O)N/N=C/c2ccco2)nc2ccccc12 | inactive: 27.2% | – |
| CNC(=S)N(C1=NCC(c2ccc([N+](=O)[O-])cc2)S1)c1ccccc1 (stereo not drawn) | inactive: 27.1% | – |
| O=Cc1cnc(N2CCN(Cc3ccccc3)CC2)s1 | inactive: 3.44% | – |
| COc1cccc(C(=O)NCCCNC(=O)c2ccco2)c1 | inactive: -5.28% | – |
| O=C(CCS(=O)(=O)c1ccccc1)Nc1ccc(N2CCOCC2)cc1 | inactive: -11.2% | – |
| Cc1ccc(N/N=C(\C#N)C(=N)N2CCCCCC2)cc1 | inactive: 10.7% | – |
| COCCNC(=O)c1ccccc1NC(=O)c1cccc([N+](=O)[O-])c1C | inactive: 7.47% | – |
| O=C(NCCCNC(=O)c1ccccn1)c1cccc(F)c1 | inactive: 1.76% | – |

| SMILES | growth rescue (activation) | Potency |
| --- | --- | --- |
| N#C/C(=C/c1ccc(OC(=O)c2ccc(Br)s2)cc1)c1nc2ccccc2[nH]1 | inactive: -0.922% | – |
| CC(C)c1ccc(/C=N/NC(=O)c2cccc(S(=O)(=O)N3CCOCC3)c2)cc1 | inactive: 17.4% | – |
| COc1ccc(/C=C/C(=O)O/N=C(\N)c2ccccn2)cc1OC | inactive: 4.06% | – |
| COc1ccccc1C1c2ccc3ccccc3c2Oc2ncn(CCN(C)C)c(=N)c21 (stereo not drawn) | inactive: 6.58% | – |
| Cc1ccc(C)c(N2C(=O)c3cc(N4CCOCC4)c([N+](=O)[O-])cc3C2=O)c1 | inactive: 5.06% | – |
| O=C(Cn1cc(C(=O)C2CC2)c2ccccc21)Nc1ccccc1Cl | inactive: 8.03% | – |
| Cc1ccc(NC(=O)COc2ccc(C3SCCS3)cc2)cc1 | inactive: -17.9% | – |
| COC(=O)c1c(NC(=O)COC(=O)CNC(=O)c2ccco2)sc(C)c1C | inactive: 25.9% | – |
| O=C(C1COc2ccccc2O1)N1CCN(c2ccc([N+](=O)[O-])cc2)CC1 (stereo not drawn) | inactive: 25.7% | – |
| CC(C)CN(CC(C)C)S(=O)(=O)N1CCC(C(=O)NCc2cccnc2)CC1 | inactive: -2.94% | – |
| O=C(COC(=O)c1cccc(NS(=O)(=O)/C=C/c2ccccc2)c1)Nc1ccccc1OC(F)F | inactive: -19.6% | – |
| CN(Cc1ccccc1)c1ccc(C(=O)O)cc1[N+](=O)[O-] | – | active: 15.8 µM |
| COc1ccccc1NC(=O)Nc1ccc(N2CCOCC2)cc1 | inactive: 11.8% | – |
| Cc1ccc(NC(=O)c2cnccn2)cc1S(=O)(=O)N(C)C | inactive: 7.13% | – |
| Cc1c(N=NC2=C(O)CC(C)(C)CC2=O)c(=O)n(-c2ccccc2)n1C | inactive: -18.3% | – |
| O=C(Nc1ccc(Br)cn1)c1cccc(S(=O)(=O)N2CCCC2)c1 | inactive: -1.01% | – |
| Cn1c2c(c(=O)n(C)c1=O)CN(Cc1ccco1)CN2 | inactive: 9.15% | – |
| CC(C)(C)OC(=O)N1CCN(C(=O)c2cccnc2Cl)CC1 | inactive: 8.01% | – |
| Cc1ccc(-c2nnc(SCC(N)=O)n2C)cc1 | inactive: -5.95% | – |
| CCC(=O)Oc1ccc2c(C)cc(=O)oc2c1C(=O)CC | inactive: -3.57% | – |
| CCc1nc2ccc(C(=O)NCCC(C)C)cn2c1N(CC)CCOC | inactive: -0.438% | – |
| CN(C)S(=O)(=O)c1cccc(NC(=O)CN2C(=O)NC(Cc3c[nH]c4ccccc34)C2=O)c1 (stereo not drawn) | inactive: -27.7% | – |
| O=C(c1ccc(-c2ccccc2)cc1)N1CCN(c2ccccn2)CC1 | inactive: 9.96% | – |

| SMILES | growth rescue (activation) | Potency |
| --- | --- | --- |
| COc1ccc(C(O)(CCC(C)C)C(CN2CCOCC2)c2ccc(Cl)cc2)cc1 (stereo not drawn) | inactive: -0.207% | – |
| CCCN(C(=O)c1cc2c(s1)-c1ccccc1SC2)c1ccccc1F | inactive: 16.9% | – |
| CC(C)C(=O)N1CCCC1(C)C(=O)Nc1cccc(Oc2ccccc2)c1 (stereo not drawn) | inactive: 9.96% | – |
| CC(C)CCNC(=O)C(=O)NCCC1=CCCCC1 | inactive: 0.941% | – |
| CCOC(=O)Cc1cc(=O)n2[nH]cc(-c3ccc(Cl)cc3)c2n1 | inactive: 2.78% | – |
| Cc1ccc(S(=O)(=O)c2cc3c(=O)n4cccc(C)c4nc3n(C3CCCCC3)c2=N)cc1 | inactive: -6.67% | – |
| CCOc1ccc(OCC(=O)OCC(=O)Nc2ccccc2C#N)cc1 | inactive: 12.1% | – |
| Cc1nnc(NC(=O)c2nc(S(=O)(=O)Cc3ccccc3)ncc2Cl)s1 | inactive: 18.2% | – |
| O=C(NCCc1ccccc1)C(=O)NN=C1CCCC1 | inactive: 11.4% | – |
| N#Cc1cc(C#N)c(SCC(=O)NCC2CCCO2)nc1N (stereo not drawn) | inactive: 17.2% | – |
| Clc1ccc(C2CSc3c4ncnc-4ncn32)cc1 (stereo not drawn) | inactive: 0.619% | – |
| COc1ccccc1N1CCN(CC(=O)Nc2c(C)n[nH]c2C)CC1 | inactive: 11% | – |
| CCC(C)NC(=O)c1ccc2c(c1)N(Cc1ccccc1)C(=O)c1ccccc1S2(=O)=O (stereo not drawn) | inactive: 15.2% | – |
| COc1cc(/C=N/Nc2ccc(Cl)cc2)ccc1OC(=O)c1cccs1 | inactive: 17.8% | – |
| O=C(O)c1ccc2c(c1)C(=O)/C(=C/c1ccccc1)C2=O | inactive: 14.1% | – |
| COc1ccc(-c2cc(NC(C)=O)c3ncc(-c4ccc(F)cc4)n3c2)cc1OC | inactive: 1.37% | – |
| COc1ccc(/C=C(\NC(=O)c2ccc(Cl)cc2)C(=O)NCCCN2CCOCC2)cc1OC | inactive: -6.84% | – |
| Cc1ccc(S(=O)(=O)/N=C(\c2ccccc2)N(C)S(=O)(=O)c2ccc(C)cc2)cc1 | inactive: 13.7% | – |
| Cc1ccc(S(=O)(=O)c2nc(-c3ccccc3Cl)oc2N2CCN(C)CC2)cc1 | inactive: 14% | – |
| Cc1cccnc1NC(=O)CCNS(=O)(=O)c1ccc2c(c1)c(=O)n(C)c(=O)n2C | inactive: -3.29% | – |
| O=C(CSc1nc2ccccc2c(=O)[nH]1)N1CCN(c2ccccc2F)CC1 | inactive: -3.19% | – |
| CN(C(=O)CCNC(=O)Cn1cnc2ccccc2c1=O)c1ccccc1F | inactive: -0.115% | – |
